Reference: PMC4336329 (PLoS ONE, 2015)
The campaign covered roughly 310,000 compounds. About 14,000 (4.5%) showed an effect of 50% or more. Effects have a minus sign here. Some of the results follow.

target: human ether-à-go-go-related gene (hERG) potassium channel (human, UniProt Q12809); assay: primary screen, population patch clamp on CHO cells stably expressing hERG
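Note: peak tail current of the secondary pulse compared with the same well before compound.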

Chain of human ether-à-go-go-related gene (hERG) potassium channel (Q12809 whole entry, looked up): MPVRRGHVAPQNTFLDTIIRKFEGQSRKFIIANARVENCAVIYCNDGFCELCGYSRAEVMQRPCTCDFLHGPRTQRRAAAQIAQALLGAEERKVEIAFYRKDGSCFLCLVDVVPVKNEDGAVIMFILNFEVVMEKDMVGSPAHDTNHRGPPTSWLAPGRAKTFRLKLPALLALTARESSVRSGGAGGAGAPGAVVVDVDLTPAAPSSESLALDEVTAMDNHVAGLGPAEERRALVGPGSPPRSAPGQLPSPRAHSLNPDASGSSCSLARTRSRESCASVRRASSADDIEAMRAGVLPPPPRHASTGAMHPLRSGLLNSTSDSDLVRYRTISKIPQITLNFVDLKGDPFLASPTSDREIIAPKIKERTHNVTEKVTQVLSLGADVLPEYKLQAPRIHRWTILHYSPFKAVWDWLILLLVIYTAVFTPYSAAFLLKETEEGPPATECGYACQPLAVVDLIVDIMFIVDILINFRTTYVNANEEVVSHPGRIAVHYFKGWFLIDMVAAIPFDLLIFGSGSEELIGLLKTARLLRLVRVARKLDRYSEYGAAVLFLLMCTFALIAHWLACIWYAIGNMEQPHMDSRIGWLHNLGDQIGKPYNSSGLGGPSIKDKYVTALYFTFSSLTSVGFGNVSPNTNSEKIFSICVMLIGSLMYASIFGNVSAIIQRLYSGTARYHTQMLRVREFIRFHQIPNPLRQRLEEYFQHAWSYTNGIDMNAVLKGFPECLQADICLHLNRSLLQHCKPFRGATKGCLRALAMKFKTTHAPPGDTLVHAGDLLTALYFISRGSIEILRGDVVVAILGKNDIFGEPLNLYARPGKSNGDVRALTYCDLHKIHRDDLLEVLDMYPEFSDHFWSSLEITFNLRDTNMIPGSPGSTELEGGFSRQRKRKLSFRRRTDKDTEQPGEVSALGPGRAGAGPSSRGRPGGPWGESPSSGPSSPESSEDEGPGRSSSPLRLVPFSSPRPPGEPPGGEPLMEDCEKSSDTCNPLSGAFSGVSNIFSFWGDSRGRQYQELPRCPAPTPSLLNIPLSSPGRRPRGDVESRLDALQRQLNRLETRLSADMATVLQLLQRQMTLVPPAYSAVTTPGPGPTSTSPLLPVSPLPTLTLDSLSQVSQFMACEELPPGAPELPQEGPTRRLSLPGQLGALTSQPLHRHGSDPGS

Going from `CC(CN1C(C)CCCC1C)OC(=O)c1ccc(Cl)cc1Cl` (stereo not drawn) to `CC(C)C(=O)NNC(=O)CSc1nc(C2CCCCC2)nc2ccccc12`, the “hERG current change (%, negative = inhibition) at 10uM” value rises from -51.7% to 13.2%.

Going from `O=C(C[n+]1cc(-c2ccccc2)n2c1CCCCC2)c1ccc(Cl)cc1.[Br-]` to `Br.C=CCn1c(=N)n(CC(=O)c2ccc(Cl)cc2)c2ccccc21`, the “hERG current change (%, negative = inhibition) at 10uM” value falls from -23.4% to -36.1%.

Compared with `Cn1c(=O)c2ccccc2n2c(CCl)nnc12`, `COCc1cc(=O)[nH]c(SCC(=O)Nc2ccccc2)n1` is higher in “hERG current change (%, negative = inhibition) at 10uM” value: -7.9% for the first, 4.96% for the second.

Going from `Cc1c(CN2CCCC(C(=O)Nc3cccc(-n4cccn4)c3)C2)cnn1C` (stereo not drawn) to `O=C(Nc1ccccc1)C1CCCN(C(=O)c2ccc(F)cc2)C1` (stereo not drawn), the “hERG current change (%, negative = inhibition) at 10uM” value falls from 7.86% to -51.8%.

Going from `CCCCSC1(SCCCC)N=C(N)C2(C#N)C(c3ccccc3)NC(C)=CC12C#N` (stereo not drawn) to `COc1ccccc1C1C2=C(CC(C)(C)CC2=O)N(CC(=O)O)C2=C1C(=O)CC(C)(C)C2`, the “hERG current change (%, negative = inhibition) at 10uM” value rises from 2.53% to 17.6%.

First: O=P(O)(O)C12CC3CC(CC(C3)C1)C2
Second: CC1(C)O[C@@H]2C[C@H]3[C@@H]4C[C@H](F)C5=CC(=O)C=C[C@]5(C)[C@H]4[C@@H](O)C[C@]3(C)[C@]2(C(=O)CO)O1
The “hERG current change (%, negative = inhibition) at 10uM” value of the first is lower: -0.367% for the first, 7.88% for the second.

First: COc1ccc(OC)c(NC(=O)CSc2nnc(-c3cccnc3)s2)c1
Second: COc1ccc(-c2nnn(CC(=O)Nc3ccc4c(c3)OCCO4)n2)cc1OC
The “hERG current change (%, negative = inhibition) at 10uM” value of the first is lower: -11.6% for the first, 16.2% for the second.

Going from `CCN(CC)Cc1c(C(=O)N/N=C/c2ccc(C)o2)nnn1-c1nonc1N` to `CCOC(=O)C(=CNc1ccc(Oc2cccnc2)nc1)C(=O)OCC`, the “hERG current change (%, negative = inhibition) at 10uM” value rises from -26.3% to 0.00188%.

Going from `CC1(C)CC(=O)C(C=Nc2ccc(O)c(N=CC3=C(O)CC(C)(C)CC3=O)c2)=C(O)C1` to `CCCc1cc(=O)oc2cc(C)c3c(C)coc3c12`, the “hERG current change (%, negative = inhibition) at 10uM” value falls from 7.73% to 5.51%.

First: NC(=O)c1ccc(NC(=O)c2cncn2-c2ccccc2)cc1
Second: Cc1cccc(NC(=O)c2ccc(COc3ccc4ccccc4c3)o2)n1
The “hERG current change (%, negative = inhibition) at 10uM” value of the first is higher: 24.8% for the first, 9.74% for the second.

First: COc1ccc(S(=O)(=O)N(C)c2ccc(C(=O)NCc3ccncc3)cc2)cc1
Second: Cc1ccccc1NC(=O)CN1C(=O)CSc2ccc(S(=O)(=O)N3CCCC3)cc21
The “hERG current change (%, negative = inhibition) at 10uM” value of the first is lower: -18.8% for the first, 18.3% for the second.

Compared with `Cc1ccc(NC(=S)NCc2cccn2C)cc1`, `COCCn1nnnc1C(c1cc2cc(C)ccc2[nH]c1=O)N1CCN(C2CCCCC2)CC1` (stereo not drawn) is lower in “hERG current change (%, negative = inhibition) at 10uM” value: 6.82% for the first, -19.9% for the second.
